Reference: PubChem BioAssay AID488969 (Vanderbilt High Throughput Screening Facility, 2010)
The full ranking holds about 110,000 compounds; the median of “z-score” is about -0.1, and the highest 2% start at about 2. The list shows a part of the results. Calls of active or inactive are those of the source.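 Rule for the calls: active = z-score in the third read window above 3 or below -3; inactive = the rest.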

These molecules were tested against Metabotropic glutamate receptor 8 (Rattus norvegicus) (UniProt P70579) (assay: mGluR8 Gi/Go-coupled signaling modulation – cell-based, rat, thallium flux, HTS, primary screen (AID 488969)). Conditions: HEK293 rat mGluR8, GIRK (G protein-gated inwardly rectifying potassium channel) thallium flux, FluoZin2; at 10 µM; stronger effect = higher value; submaximal glutamate (EC20) added with thallium.
Sequence of UniProt P70579 (P70579 whole entry, looked up): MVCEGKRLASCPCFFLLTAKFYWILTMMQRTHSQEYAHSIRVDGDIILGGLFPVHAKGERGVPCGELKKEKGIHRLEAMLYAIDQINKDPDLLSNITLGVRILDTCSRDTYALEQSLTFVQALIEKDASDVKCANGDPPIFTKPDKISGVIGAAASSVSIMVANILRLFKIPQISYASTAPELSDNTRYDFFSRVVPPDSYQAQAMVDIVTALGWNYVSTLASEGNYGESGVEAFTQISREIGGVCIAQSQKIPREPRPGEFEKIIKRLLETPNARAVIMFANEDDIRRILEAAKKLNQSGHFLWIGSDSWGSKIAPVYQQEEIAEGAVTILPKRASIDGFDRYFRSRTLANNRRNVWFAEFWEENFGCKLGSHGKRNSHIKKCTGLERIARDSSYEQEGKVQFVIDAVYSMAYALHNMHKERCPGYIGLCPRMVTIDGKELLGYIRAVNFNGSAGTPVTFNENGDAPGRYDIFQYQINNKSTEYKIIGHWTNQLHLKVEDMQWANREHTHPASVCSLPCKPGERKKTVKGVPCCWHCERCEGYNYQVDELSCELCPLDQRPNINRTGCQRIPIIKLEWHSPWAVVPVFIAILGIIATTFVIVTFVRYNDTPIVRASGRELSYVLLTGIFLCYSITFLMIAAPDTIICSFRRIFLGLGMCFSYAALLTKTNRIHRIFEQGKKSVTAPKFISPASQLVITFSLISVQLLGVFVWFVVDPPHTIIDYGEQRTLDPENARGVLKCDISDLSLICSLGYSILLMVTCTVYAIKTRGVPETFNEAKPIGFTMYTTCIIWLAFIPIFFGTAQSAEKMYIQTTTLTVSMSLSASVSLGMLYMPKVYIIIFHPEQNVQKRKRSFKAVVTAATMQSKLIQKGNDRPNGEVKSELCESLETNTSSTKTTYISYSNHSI
Work on `COCC(=O)N(Cc1cc2cc(OC)ccc2[nH]c1=O)c1ccccc1` yielded a z-score of -0.177. With `Cc1cc(NC(=O)CSc2nnc(-c3ccc4c(c3)OCCO4)o2)no1` the z-score was 0.479. `C1=CC2c3ccccc3NC(c3ccncc3)C2C1` (centres undefined) gave a z-score of -0.14. With `CSc1ccccc1NC(=O)CN(C)CC(=O)Nc1ccc(Cl)cc1F` the z-score was -0.634. `CC1=C(C)CC(C(=O)N2CCN(Cc3ccccc3)CC2)C(C(=O)O)C1` (centres undefined) showed a z-score of 0.119. In the case of `Cn1c(SCC(=O)NC(=O)c2cccc([N+](=O)[O-])c2)nnc1-c1ccc(F)cc1`, the z-score is reported as -0.599. Work on `Cc1ccc(Cl)cc1NC(=O)COC(=O)C1CCCCC1` yielded a z-score of -0.128. Molecule `Cc1c(NC(=O)CSc2ccc(Cl)cc2)cccc1-c1nc2ncccc2o1` has a z-score of -0.212. Molecule `Cc1c(Br)c(C(=O)N2CCc3ccccc32)nn1C` has a z-score of -0.182. With `CC(=O)Nc1sc(NC(=O)c2ccc(C)cc2)nc1-c1cccs1` the z-score was 0.14. For `C=CCn1c(SCC(=O)Nc2sccc2C#N)nc2sc(C)c(C)c2c1=O`, the z-score was 0.0234. With `Cc1nc(C(=O)Nc2ccc(Cl)cc2)nn1-c1ccc([N+](=O)[O-])cc1` the z-score was -0.385. `O=C(COC(=O)CNC(=O)c1cccc([N+](=O)[O-])c1)Nc1nc2ccccc2s1` gave a z-score of -0.159. Work on `Cc1noc(C)c1CSCC(=O)N1CCN(c2ccc([N+](=O)[O-])cc2)CC1` yielded a z-score of -0.325. With `COc1ccccc1OCC(=O)N(Cc1nc(-c2ccccc2)no1)C1CCCCC1` the z-score was -0.721. `Cc1cc(C)cc(NS(=O)(=O)c2ccc(NC(=S)NC(=O)c3ccc(Br)o3)cc2)c1` was tested, and the z-score was 2.18. For `COc1ccc(C(Nc2ccccn2)c2c(NC(=O)c3ccco3)sc(C)c2C)cc1OC` (centres undefined), the z-score was -0.456. Molecule `COc1ccccc1NC(=S)NNC(=O)c1nn(C)cc1Cl` has a z-score of -0.1. With `O=S(=O)(NCc1ccccc1)c1cccc2nonc12` the z-score was 0.525. In the case of `O=C(Nc1ccc2c(c1)OCO2)c1ccc[n+]([O-])c1`, the z-score is reported as 0.533. With `CCOc1ccc2[nH]c(C)c(CN3CCN(C)CC3)c(=O)c2c1` the z-score was -0.0143. Molecule `FC(F)(F)c1cccc(-c2cc3ccccc3nc2N2CCCC2)c1` has a z-score of -0.0554. In the case of `CC(C)(C)C(=O)NC1=NCCS1`, the z-score is reported as -0.255. For `CCOC(=O)Cc1csc(NC(=O)c2ccc(C)o2)n1`, the z-score was 0.312. `Cc1cccc(NC(=O)CSc2nnc(NC(=O)c3ccc(S(=O)(=O)N4CCOCC4)cc3)s2)c1C` was tested, and the z-score was -0.0933. `O=C(CN1CCN(C(=O)c2ccccc2F)CC1)Nc1ccc(Br)cc1` gave a z-score of -0.165. Molecule `O=C(NCc1ccccc1)C(c1ccco1)N(C(=O)c1cnccn1)c1ccc(F)cc1` (centres undefined) has a z-score of 0.0702. With `CC(=O)c1cc(-c2ccccc2)n(CC(=O)N2CCC(C)CC2)c1C` the z-score was -0.584. In the case of `Cc1ccccc1NS(=O)(=O)c1cc(C(=O)NCCC2=CCCCC2)ccc1Cl`, the z-score is reported as -0.132. `CCNC(=S)N(Cc1cccs1)Cc1cc2cc(OCC)ccc2[nH]c1=O` showed a z-score of -0.109. Work on `Cc1ccc(C(=O)NC(=S)Nc2ccccc2C(F)(F)F)c(C)c1` yielded a z-score of 0.996. `CCC(=O)Nc1nnc(C)s1` gave a z-score of 0.946. `COc1ccc(C)cc1NC(=O)COC(C)=O` showed a z-score of -0.279. Work on `COc1cc(/C=C/C(=O)N2CCCc3ccccc32)cc(OC)c1OC` yielded a z-score of 0.519. Molecule `CCC1(C)Cc2ccccc2-c2c1c(=O)n(-c1ccc(C)cc1)c1nnnn21` (centres undefined) has a z-score of 0.136. With `CC(CCCC(C)(C)O)NCCO` (centres undefined) the z-score was -0.0612. `Cc1cccc(N(C(=O)Nc2ccccc2)C2=NCC(C)S2)c1` (centres undefined) showed a z-score of -0.144. In the case of `O=C(Cc1ccccc1)Nn1c(-c2ccccc2)nc2ccccc2c1=O`, the z-score is reported as 0.516. Work on `COC(=O)c1cc(-c2ccc(OC)c(OC)c2)n[nH]1` yielded a z-score of -0.482. Work on `Cc1ccc(-n2c(N)c(C(N)=O)sc2=S)c(C)c1` yielded a z-score of -0.252. With `CC(C)CC(=O)NC(=S)NNC(=O)c1ccc([N+](=O)[O-])cc1` the z-score was 0.187. In the case of `COc1ccc(CNC(=O)CN(C(=O)c2ccc(CN3CCOCC3)o2)C2CCCC2)cc1`, the z-score is reported as -0.1. Molecule `Cc1cccc(OCC(=O)N(Cc2cccs2)C2CCS(=O)(=O)C2)c1` (centres undefined) has a z-score of -0.492. Work on `O=C(c1ccc(COCC(F)(F)F)o1)N1CCCCCC1` yielded a z-score of -0.0813. In the case of `CCOC(=O)N1CCN(C(=O)c2ccc3c(=O)n(CCC4=CCCCC4)c(=S)[nH]c3c2)CC1`, the z-score is reported as 0.221. For `CCn1c(SCc2ccc(Cl)cc2)nnc1-c1ccccc1`, the z-score was active: 3.4. Work on `CCOC(=O)c1c(NC(=O)CSc2ncnc3ccccc23)sc(C)c1C` yielded a z-score of -0.246. `O=C(Cc1ccccc1)Nc1nonc1NC(=O)c1ccccc1` gave a z-score of -0.763. `CCc1cccc(C)c1NC(=O)c1ccc(CN2CCc3ccccc3C2)cc1` gave a z-score of 0.221. In the case of `Cc1ccnc(N/C=C(/NC(=O)c2ccccc2)C(=O)N/N=C\c2ccc(F)cc2)n1`, the z-score is reported as -0.188. With `CN(C)c1ccc(/C=[N+](\[O-])C2N(c3ccccc3)C(=S)SC2(C)C)cc1` (centres undefined) the z-score was 0.11. `CC(C)(C)c1nc(S(=O)(=O)c2ccc(Cl)cc2)c(N2CCOCC2)o1` showed a z-score of -0.0494. `CCn1cnc2sc(C(=O)O)c(C)c2c1=O` gave a z-score of -0.218. With `O=C(Cn1cc2c(n1)CCCCC2)N1CCc2ccccc21` the z-score was 0.712. Work on `NC(=O)C1CCN(C(=O)c2ccc(-c3ccccc3)cc2)CC1` yielded a z-score of 0.99. For `O=C1CC(c2ccco2)Cc2nc(N3CCc4ccccc4C3)ncc21` (centres undefined), the z-score was -0.109. `COc1ccc(C(=O)C(c2ccccc2)N2CCOCC2)cc1` (centres undefined) showed a z-score of 2.44. `c1ccc(-c2nc(-c3cccs3)[nH]c2-c2ccccc2)cc1` gave a z-score of -0.425. `CCOc1ccc(NC(=O)CN2CCN(CC(=O)Nc3ccc(F)cc3)CC2)cc1` was tested, and the z-score was -0.0589. `COCc1c(C(=O)N2CCN(c3ccc(C(F)(F)F)cn3)CC2)oc2ccccc12` showed a z-score of -0.0186. `CC1CCC(NC(=O)CN2C(=O)COc3ccc(S(=O)(=O)N4CCCC4)cc32)CC1` (centres undefined) gave a z-score of -0.0735. `COc1ccc2[nH]c(=O)c(C(c3nnnn3C3CCCC3)N(C)C3CCCCC3)cc2c1` (centres undefined) was tested, and the z-score was -0.943. `Cc1ccc(CNC(=O)CCNS(=O)(=O)c2ccc3c(c2)c(=O)n(C)c(=O)n3C)cc1` was tested, and the z-score was -0.0284. In the case of `O=C(NC(=S)NCCc1ccccc1)c1ccco1`, the z-score is reported as active: 13. `Cc1ccc(NS(=O)(=O)c2cccc(C(=O)N/N=C/c3c(C)nn(-c4ccccc4)c3N3CCCC3)c2)c(C)c1` showed a z-score of -0.38. With `Cc1ccc(SC(C)C(=O)Nc2ccncc2)cc1` (centres undefined) the z-score was -0.115. `CN(Cc1ccccc1)C(=O)[C@H]1CCC(=O)N1Cc1ccco1` was tested, and the z-score was 0.3. Work on `CCCCCn1c(S(=O)(=O)O)nc2ccccc21` yielded a z-score of -0.124. `COc1cccc(/C=N\NC(=O)C2C(=O)NCC2c2ccccc2)c1O` (centres undefined) was tested, and the z-score was -0.383. In the case of `Cc1ccc(C2CC(=O)N3CN(c4ccc(Br)cc4)CSC3=C2C#N)o1` (centres undefined), the z-score is reported as -0.821. `CCc1[nH]nc2c1C(c1ccc(Br)s1)C(C#N)=C(N)O2` (centres undefined) gave a z-score of -1.71. For `CCC(Sc1nc2ccc(N)cc2s1)C(=O)Nc1nccs1` (centres undefined), the z-score was -0.186. With `Brc1ccccc1C1CC(c2ccccc2)=Nc2ccccc2N1` (centres undefined) the z-score was -0.443. For `CCOC(=O)N1CCC(NC(=O)CCc2cn(C)c3ccccc23)CC1`, the z-score was 0.837. `O=C(N/N=C/c1ccccc1OCC(=O)N1CCCC1)C(=O)Nc1ccccc1F` was tested, and the z-score was -0.172. Molecule `COc1ccc2c(Cl)c(-c3nnc(SCC(=O)c4ccccc4)n3C)sc2c1` has a z-score of -0.127. Work on `C=CCn1c(N)c(C(=O)NCc2cccnc2)sc1=S` yielded a z-score of 0.731. In the case of `Cc1cccc(C2NC(c3cccc(C)c3)C([N+](=O)[O-])C(C)(C)C2[N+](=O)[O-])c1` (centres undefined), the z-score is reported as 1.01. `CCOC(=O)C1=C(C)NC(=S)N(C(C)=O)C1c1ccc(Cl)cc1` (centres undefined) showed a z-score of 1.27. `Cc1cc(NC(=O)c2sccc2C)n(-c2cccc(Cl)c2)n1` gave a z-score of -0.756. For `O=C1CC(c2ccccc2)Cc2nc(NCc3ccco3)ncc21` (centres undefined), the z-score was -0.203. With `Cc1cc(C)n(CC(O)COCc2ccccc2)n1` (centres undefined) the z-score was 0.413. `CN1C(C)(C)CC(=NOC(=O)c2ccccc2)CC1(C)C` showed a z-score of 0.114. `O=C(CC1Oc2ccccc2NC1=O)NC1CCCC1` (centres undefined) was tested, and the z-score was -0.0976. Molecule `C=CCc1c(OC)ccc2ccc(=O)oc12` has a z-score of -0.376. With `Cc1ccc2[nH]c3c(N4CCCCCC4)ncnc3c2c1` the z-score was -1.1. For `O=C(N/N=C\c1ccc(-c2ccccc2[N+](=O)[O-])o1)C1COc2cc3ccccc3cc2O1` (centres undefined), the z-score was -0.33. Work on `CCOCCCNC(=O)C1CCN(S(=O)(=O)c2c(C)noc2/C=C\c2ccc(OC)cc2)CC1` yielded a z-score of -0.684. With `COc1ccc(NS(=O)(=O)c2ccc3c(c2)oc(=O)n3C)c(OC)c1` the z-score was 0.162. `Cc1ccc(S(=O)(=O)N2CCN(C(=O)c3nn(C(C)C)c(=O)c4ccccc34)CC2)cc1C` was tested, and the z-score was -0.273. Molecule `CCc1cccc(C)c1NC(=O)CO/N=C(\C)c1cc2ccccc2o1` has a z-score of -0.474. `Fc1ccc(-c2cnc(-c3cccs3)o2)cc1` was tested, and the z-score was 0.0736. With `CCc1cc2c3c(c1)C(C)CC(C)(C)N3C(=O)C2=O` (centres undefined) the z-score was -1.1. `CC(NC(=O)CN(C)Cc1nc2ccccc2c(=O)[nH]1)c1ccccc1` (centres undefined) showed a z-score of -0.0151. `O=C(NC1CCCCC1)C(c1ccccc1)N(Cc1ccc2c(c1)OCO2)C(=O)c1cnsn1` (centres undefined) was tested, and the z-score was 2.16. For `COC(=O)C1=C(C)N=c2s/c(=C/c3cccs3)c(=O)n2C1c1cccs1` (centres undefined), the z-score was 0.251. Work on `Cc1sc(NC(=O)C2CC=CCC2C(=O)O)c(C(=O)OC(C)C)c1C` (centres undefined) yielded a z-score of -0.176. In the case of `O=C(Oc1cccc(NC(=O)c2cccs2)c1)c1cccc(S(=O)(=O)N2CCCC2)c1`, the z-score is reported as -0.3. In the case of `CCc1nnc(NC(=O)Cc2ccc(OC)cc2)s1`, the z-score is reported as 0.105. For `COc1cnn(-c2ccccc2)c(=O)c1SCc1ccc(Cl)cc1Cl`, the z-score was 0.0847. Work on `Cc1ccc(-c2nc3ccccc3o2)cc1NC(=S)NC(=O)c1cccs1` yielded a z-score of 1.65. `N#Cc1nc(N)nc(N(c2ccccc2)c2ccccc2)n1` was tested, and the z-score was -0.535. Molecule `COc1ccc(-n2nc3cc(C)c(N)c(Br)c3n2)cc1` has a z-score of -0.24. In the case of `Cn1c(CS(=O)Cc2c(Cl)cccc2Cl)nnc1SCc1ccc(Cl)cc1` (centres undefined), the z-score is reported as -0.0974. For `CCc1ccc(NC(=O)C(C)Oc2nnc(-c3cccs3)c(-c3cccs3)n2)cc1` (centres undefined), the z-score was -0.246. With `CCN1CCN(C(=O)C2(NC(=O)Nc3cccc(F)c3)CCCCC2)CC1` the z-score was 0.174. Work on `Cc1ccc(NC(=O)Cn2nnc(C(=O)Nc3ccc(C)c(C)c3)c2N)cc1` yielded a z-score of 0.457. `CCOc1ccc(NS(=O)(=O)c2ccc3[nH]cc(C(=O)N(CC)CC)c(=O)c3c2)cc1` gave a z-score of 0.0393. `COc1ccc(Nc2ncc3c(n2)CC(c2ccc(C)cc2)CC3=O)cc1` (centres undefined) showed a z-score of -0.0742.
